Values joined by “and” are separate entries in the source; they are usually repeats but may differ in a detail not shown here. Equal entries are not always repeated. About 2,600 (0.72%) of roughly 360,000 compounds were called active. Inconclusive results, whose numbers are uncertain, are shown with a selection of clear calls. Calls follow the shape of the dose curve; as a rule, active = well fitted inhibition curve with a large enough effect; inconclusive = small, poorly fitted or top-dose-only effect; inactive = no such curve, though single readings can be large or run the other way. A potency beside an inconclusive call is a rough fit, not a confirmed value.
experiment: Primary qHTS for Inhibitors of ATXN expression; conditions: HEK-293 ATXN2-luciferase reporter, luminescence, 24 h; activity change, negative = inhibition: at 57 µM (top of the series); also: nearly all actives have a fitted effect of over 55% in size
Summary of the method: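 qHTS (up to 57 uM final) was run with 24 h compound exposure of reporter cells at 37 °C. Each well was multiplexed: SteadyGlo luminescence measured ATXN2-luciferase expression after a fluorogenic Gly-Phe-AFC viability readout (25 uM final).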
% is scaled to controls: 0 for no effect and ±100 for the full control effect; potency is read from the fitted curve at half-maximal effect; tags tell the direction and shape of the fitted curve.

Activity change, negative = inhibition, inactive:
CCCS(=O)(=O)N1CCC(n2c(C)nc3cccnc32)CC1 -8.77%, COc1ccc(SCc2noc(C(=O)NC(C)C)c2C(=O)O)cc1 -3.09%, Cc1ccc(NC(=O)CCC(=O)N2Cc3ccccc3Oc3ncccc32)cc1Cl -10.6%, COC(=O)N1C(=O)[C@](c2ccccc2)(C(C)C)N1C(=O)OC -1.48%, Cn1cc(C(=O)c2cccc(Cl)c2)cc1/C=N\O 2.58%, CC1CCCCN1C(=O)CN1C(=O)NC2(CCCCC2C)C1=O (configuration not stated) 3.82%, CC(C)CC(=O)Nc1ccc2oc(-c3cccnc3)nc2c1 29%, COc1ccccc1NC(=O)Nc1ccc(Cl)c(S(=O)(=O)Nc2ccccc2OC)c1 -24.1%, COc1ccc(-n2c(=O)c3ccc(C(=O)NCc4ccc(C)cc4)cc3n(Cc3cccc(Cl)c3)c2=O)cc1 6.24%, O=S(=O)(c1ccc(Br)cc1)c1nc(-c2ccccc2)oc1NCCN1CCOCC1 -7.82%, Cc1[nH]c2ccccc2c1N=Nc1ccccc1F 5.93%, Cc1cccc(C2c3[nH]c4ccccc4c3CCN2C(=O)c2ocnc2C)n1 (configuration not stated) -19.6%, CC(C)(C)Cc1c(-c2ccc(Br)cc2)nc2ccc(Br)cn12 -27.6%, COCCN(C(=O)CCSc1ccc(F)cc1)c1c(N)n(Cc2ccccc2)c(=O)[nH]c1=O 2.34%, Cc1nc(N/N=C\c2ccc3c(c2)OCO3)sc1C 58.1%, Cc1cc(NC(=O)CSc2nccn2-c2cccc(F)c2)no1 -2.85%, Cc1cc(C(=O)NC2CC(C)(C)Cc3c2cnn3-c2cccc(F)c2)nn1C (configuration not stated) 8.77%, CCc1sc(C(=O)Nc2cccc(C(C)=O)c2)cc1C 17.4%, CCCNC(=O)N(C)C[C@H]1Oc2ncc(C#CCc3ccccc3)cc2C(=O)N([C@H](C)CO)C[C@H]1C -6.17%, CCCc1cc(=O)n2[nH]c(C)c(-c3ccccc3)c2n1 -32.1%, CCOC(=O)N1CCN(C(=O)CCN2C(=O)/C(=C\c3cccc(OC)c3)SC2=S)CC1 5.62%, O=S(=O)(NNc1ncc(C(F)(F)F)cc1Cl)c1ccccc1 -4.64%

Potency, active:
CCc1nc2c(OCc3ccc(Cl)cc3Cl)cccn2c1N(C)C(=O)C(C)C 28.2 µM, Cn1nnnc1Sc1ncnc2scc(-c3cccs3)c12 8.91 µM, COc1ccc(C(=O)Nc2ccc(C)cn2)c(OC)c1 3.16 µM

Potency, inconclusive:
CC(=O)Nc1ccc(NC(=O)COc2ccc(-c3ccccc3)cc2)cc1 39.8 µM [inhibitor, single point], COc1ccc(N=c2oc3c(OC)cccc3cc2C(=O)NCc2ccco2)c(OC)c1 10 µM [inhibitor, partial curve], CCCCCCCCNCCS(=O)(=O)NCc1ccc(OC)cc1 22.4 µM [inhibitor, single point], COc1ccc(C)cc1NC(=O)c1nnn(Cc2cccc(Br)c2)c1N 2.24 µM [inhibitor, full curve, poor fit], COc1ccc([C@H]2CC(=O)C=C(c3cc(F)ccc3F)C2)cc1OC 22.4 µM [inhibitor, partial curve, poor fit], CN1CCN(c2ccc(NC(=O)c3ccc(-c4ccc(Br)cc4)o3)cc2)CC1 22.4 µM [inhibitor, partial curve, poor fit], CCCCNC(=O)C1(C)CCCCCN1Cc1cc2ccccc2o1 (configuration not stated) 28.2 µM [inhibitor, single point], CCC(=O)NC(c1ccc(C)cc1)c1ccc2cccnc2c1O (configuration not stated) 3.16 µM [inhibitor, partial curve, poor fit], NS(=O)(=O)c1ccc(N=Nc2c(O)[nH]c3ccc(Br)cc23)cc1 7.94 µM [inhibitor, partial curve, poor fit], Cc1ccc(N(C)S(=O)(=O)c2c[nH]c3ccc([N+](=O)[O-])cc23)cc1 39.8 µM [inhibitor, single point], O=C(OCc1cccc(C(F)(F)F)c1)c1cc(S(=O)(=O)N2CCOCC2)ccc1F 39.8 µM [inhibitor, single point], CC(C)(Sc1ccc(CCN(CCCCC2CCCCC2)C(=O)NC2CCCCC2)cc1)C(=O)O 27.3 µM [inhibitor, partial curve, poor fit], CCCCNC(=O)C[C@@H]1C[C@@]2(C(=O)OCC)CCCC=C2N(Cc2ccc(Cl)cc2Cl)C1=O 39.8 µM [inhibitor, single point], COc1ccccc1CNC(=O)CSc1cc(=O)n(C)c2ccccc12 1.68 µM [inhibitor, full curve, poor fit], Cn1nc(C(=O)N2CCN(c3ccc(Cl)cc3)CC2)c2c1-c1ccccc1S(=O)(=O)C2 25.1 µM [inhibitor, single point] and 14.1 µM [inhibitor, partial curve, poor fit], COc1ccc(N(C)S(=O)(=O)c2cccc(C(=O)Nc3ccc(N4CCOCC4)cc3)c2)cc1 31.6 µM [inhibitor, partial curve], O=C(/C(=N/O)n1cncn1)c1ccccc1Cl 37.7 µM [inhibitor, partial curve, poor fit], COc1ccc(-n2nc(C#N)c(Cl)cc2=O)cc1 39.8 µM [inhibitor, single point], O=C(CCCN1C(=O)/C(=C/c2ccccc2Cl)SC1=S)NNC(=O)c1ccc(Cl)cc1 12.6 µM [inhibitor, partial curve], CCCCC(CC)C(=O)Nc1ncc([N+](=O)[O-])s1 (configuration not stated) 21.2 µM [inhibitor, partial curve, poor fit], O=C(Cn1ncc(Cl)c(Cl)c1=O)c1ccc2c(c1)OCCO2 37.7 µM [inhibitor, single point], CC/C(=C(/CC)c1ccc(O)cc1)c1ccc(O)cc1 11.2 µM [inhibitor, full curve], Cc1ccc(NS(=O)(=O)c2cc(NC(=O)c3ccc4c(c3)NC(=O)CS4)ccc2C)c(C)c1 37.7 µM [inhibitor, single point], COc1ccc(OC)c(NC(=O)c2c(NCc3ccc(OC)c(OC)c3)sc3c2CCC3)c1 25.1 µM [inhibitor, single point], CC(=O)N1c2ccc(S(=O)(=O)N3CCC(C(=O)Nc4cccc(C(F)(F)F)c4)CC3)cc2CC1C (configuration not stated) 35.5 µM [inhibitor, partial curve], CCc1ccc(NS(=O)(=O)c2ccc3[nH]cc(C(=O)NCc4ccc(C)cc4)c(=O)c3c2)cc1 20 µM [inhibitor, single point], NC(=O)CC(NC(=O)Cc1cccc2ccccc12)c1ccc(NC2CC3CCC2C3)c([N+](=O)[O-])c1 (configuration not stated) 28.2 µM [inhibitor, partial curve, poor fit], CCN(CC)C(=O)c1oc2ccc(S(=O)(=O)N3CC(C)CC(C)C3)cc2c1C (configuration not stated) 0.631 µM [inhibitor, full curve], COc1ccc(NC(=O)C2CCC(C(C)(C)C)CC2)cc1S(=O)(=O)N1CCCCC1 (configuration not stated) 22.4 µM [inhibitor, single point], N#Cc1nc(Cc2cccc3ccccc23)oc1NCc1ccc(F)cc1 28.2 µM [inhibitor, single point], CC1=C(C(=O)Nc2ccccc2C)C(c2ccco2)n2ncnc2N1 (configuration not stated) 28.2 µM [inhibitor, partial curve, poor fit], CCc1nc2ccc(C(=O)NCc3ccc4c(c3)OCO4)cn2c1N(C)Cc1ccc(OC)cc1 22.4 µM [inhibitor, single point], O=C(CCCc1nc(-c2ccccc2)no1)Nc1cc(C(F)(F)F)cc(C(F)(F)F)c1 22.4 µM [inhibitor, partial curve], CCN(Cc1ccccc1)S(=O)(=O)c1ccc(C(=O)N(CCCN(C)C)c2nc3cc(OC)ccc3s2)cc1 35.5 µM [inhibitor, single point], Cc1n[nH]c(C)c1CCc1nc2c3ccccc3nc(SCC(=O)Nc3ccc(F)cc3)n2n1 39.8 µM [inhibitor, single point], COC(=O)C1=C(C(=O)OC)SC(=C2C(=S)C(C)(C)N(C(=O)CC(C)C)c3ccccc32)S1 22.4 µM [inhibitor, single point], Cc1cc(C(F)F)n2nc(C(=O)Nc3ccc(S(=O)(=O)N4CCCCCC4)cc3)nc2n1 39.8 µM [inhibitor, single point], Cc1cc(C)n(-c2ncc(C#N)cn2)n1 0.844 µM [inhibitor, full curve, poor fit], O=C(/C=C/c1ccccc1)CC(O)(c1ccccc1)C(F)(F)C(F)F (configuration not stated) 39.8 µM [inhibitor, single point], COc1ccc(-c2nc(CN(C)C(C)c3ccon3)c(C)o2)c(C)c1C (configuration not stated) 33.6 µM [inhibitor, single point], Cc1ccc(C)c(OCCC(=O)OCC(=O)N2CCN(S(=O)(=O)c3ccc(Cl)cc3)CC2)c1 39.8 µM [inhibitor, single point], O=C(Nc1ccc(Cl)cc1)c1nc[nH]c1C(=O)NCc1ccccc1 39.8 µM [inhibitor, single point]

From PubChem BioAssay AID1745845 (National Center for Advancing Translational Sciences (NCATS), 2022)
